The whole screen tested about 52,000 compounds, of which about 4,300 (8.3%) were called active. Cut-off read from the data, not from the text of the source: active = survival mostly below about 52% (no sharp cut-off); inactive = mostly above about 56%. Some of the results follow.
System: DeltatarO mutant
Experiment: S. aureus survival, RN4220 and DeltatarO strains – OD600, teichoic acid synthesis inhibitors, primary screen (AID 463173)
Details: S. aureus RN4220 wild type/DeltatarO growth, OD600, 18 h, hits give low values, screened at 18.75 µg/mL (by protocol)

| SMILES | survival |
| --- | --- |
| CCCCn1c(C)nc2ccccc21 | inactive: 104% |
| O=C(CSC1=Nc2ccccc2N=C(c2ccc(F)cc2)C1)Nc1cc(F)ccc1F | inactive: 97% |
| COc1ccc(Cl)cc1NC(=O)CN1c2ccccc2S(=O)(=O)c2ccccc21 | inactive: 75% |
| Cc1cc(NS(=O)(=O)c2ccc(NC(=O)COc3c(C)cc(Br)cc3C)cc2)no1 | inactive: 110% |
| O=S(=O)(NCc1ccccc1)c1ccc2[nH]c3c(c2c1)CCCCC3 | inactive: 82% |
| COc1cccc(NS(=O)(=O)c2ccc3[nH]cc(C(=O)NC4CCCCC4)c(=O)c3c2)c1 | active: 35% |
| CCCOc1ccc(CNC(=O)C2CCN(c3nc4ccccc4nc3C(F)(F)F)CC2)cc1 | inactive: 75% |
| CCn1cc2nc(SCc3cccc(OC)c3)n(Cc3ccc(Cl)cc3)c(=O)c2n1 | inactive: 60% |
| COC(=O)c1cc2sccc2n1Cc1ccccc1 | active: 35% |
| O=C(CCC1N=C2c3ccccc3N=C(SCc3cccc(F)c3)N2C1=O)NC1CCCCC1 (stereo not given) | inactive: 94% |
| CCS(=O)(=O)c1nc(S(=O)(=O)c2ccc(C)cc2)c(NCc2ccc(Cl)cc2)s1 | inactive: 74% |
| CCOC(=O)c1ccc(NS(=O)(=O)c2cn(C)c(C)n2)cc1 | inactive: 69% |
| Cc1ccc(S(=O)(=O)N2CCCc3cc(NC(=O)c4ccc(F)c(F)c4)ccc32)cc1 | inactive: 93% |
| COc1cccc(C(=O)Nc2cc(-c3ccccc3)nn2-c2ccccc2)c1 | inactive: 88% |
| O=C(COc1ccc2oc3c(c2c1)CCCC3)Nc1ccc(Cl)cc1 | inactive: 85% |
| CCOc1ccc(-c2c(C)nn3c(-c4ccccc4)c(C(=O)NCCOC)cnc23)cc1OCC | active: -5% |
| CCOc1ccc(C(=O)Nc2ccc(C(=O)OCc3cc(=O)n4nc(CC)sc4n3)cc2)cc1 | inactive: 83% |
| COC(=O)c1ccc(NC(=O)N2CCC(CN3CCc4ccccc4C3)CC2)cc1 | active: 6% |
| COc1ccc(NC(=O)CSc2ccc(-c3cccs3)nn2)cc1 | inactive: 87% |
| COc1ccc(/C=C/C(=O)N2CCC(c3nc4ccccc4o3)CC2)cc1 | inactive: 83% |
| Cc1cccc(C)c1OCC(=O)N1CCC(c2nc3ccccc3o2)CC1 | inactive: 86% |
| Nc1c(C(=O)NCc2ccc3c(c2)OCO3)nnn1CC(=O)Nc1ccc(Br)cc1 | inactive: 55% |
| COc1ccc(NC(=O)CN(C)S(=O)(=O)c2ccc(C(=O)N3CCOCC3)s2)cc1 | inactive: 101% |

| SMILES | survival |
| --- | --- |
| Cc1cc(SCC(=O)Nc2ccc(Cl)cc2)nc2ccccc12 | inactive: 65% |
| Cc1ccc(Cn2cc(C(=O)c3ccc(C)cc3)c(=O)c3ccc(C)nc32)cc1 | active: 24% |
| CCc1ccc(-c2cc(C)no2)cc1S(=O)(=O)Nc1ccc(Cl)cn1 | active: 17% |
| Cc1cccc(NC(=O)CSc2cn(CC(=O)N3CCCC3)c3ccccc23)c1C | inactive: 99% |
| CC(=O)N1CCCc2cc(S(=O)(=O)N3CCCC(C(=O)NCc4ccccc4)C3)ccc21 (stereo not given) | inactive: 90% |
| CCOc1ccc(NC(=O)Cn2cc(C(=O)c3ccc(OCC)cc3)c(=O)c3cc4c(cc32)OCCO4)cc1 | inactive: 71% |
| CN(C)S(=O)(=O)N1CCC(n2cnc3cccnc32)CC1 | inactive: 89% |
| CC(=O)N1CC=C2C(C#N)=C(N)C(C#N)(C#N)C(C)C2C1 (stereo not given) | inactive: 83% |
| COc1ccccc1Cn1c(CNS(=O)(=O)c2ccc(CC(C)C)cc2)nc2cccnc21 | inactive: 95% |
| Cc1ccc(CCNC(=O)c2cc3cc4cc(C)ccc4nc3s2)cc1 | active: 46% |
| COc1ccc(NC(=O)N(C(C)C)C2CCN(C(C)=O)CC2)c(OC)c1 | active: -2% |
| COC(=O)Cc1c(C)c2cc3c(c(C)c2oc1=O)OCN(CCc1ccc(F)cc1)C3 | inactive: 44% |
| COc1cccc(NC(=O)CN2C(=O)COc3ccc(S(=O)(=O)N4CCCCCC4)cc32)c1 | inactive: 74% |
| O=C1C2=C(Nc3ccccc3SC2c2ccc(Cl)c(Cl)c2)c2ccccc21 (stereo not given) | active: 22% |
| O=C(NCC1COc2ccccc2O1)c1cn(Cc2ccc(F)cc2)nn1 (stereo not given) | inactive: 80% |
| CCOC(=O)c1cc(S(=O)(=O)Nc2ccc(OC(F)(F)F)cc2)[nH]n1 | inactive: 66% |
| CCC1CN(C(=O)N2CCC(C(=O)NCc3cc(OC)ccc3OC)CC2)c2ccccc2O1 (stereo not given) | inactive: 71% |
| COc1ccc(NC(=O)CSc2nc(-c3ccc(OC)cc3)cc(=O)[nH]2)cc1 | inactive: 139% |
| Cn1c(C(=O)NCc2ccc(F)cc2)cc2cc(S(=O)(=O)N3CCCCC3)ccc21 | inactive: 126% |
| COc1cc(OC)c(NC(=O)c2cc3c(s2)-c2ccc(Cl)cc2SC3)cc1Cl | inactive: 89% |
| Cc1cccc(N2CCN(C(=O)C3CCN(Cc4nc(-c5ccc(Cl)cc5)oc4C)CC3)CC2)c1C | inactive: 60% |
| Cc1nonc1OCC(C)(N)COc1nonc1C | inactive: 96% |
| CCc1nn2c(-c3ccco3)ccnc2c1-c1ccccc1 | inactive: 84% |

| SMILES | survival |
| --- | --- |
| COc1ccc(C)cc1S(=O)(=O)Nc1cccc(-c2ccc(N3CCC(C)CC3)nn2)c1 | active: -2% |
| N#CCN(CC#N)C(=O)C1c2ccccc2Oc2ccccc21 | inactive: 89% |
| Cc1ccc(CNC(=O)c2cc(C3CC3)nc3c2c(C)nn3-c2cccc(Cl)c2C)cc1 | inactive: 107% |
| N#CC(C#N)=C1c2ccccc2-c2nc(C#N)c(C#N)nc21 | active: 4% |
| CCCN(CCC)C(=O)c1c[nH]c2ccc(S(=O)(=O)Nc3cc(C)cc(C)c3)cc2c1=O | inactive: 80% |
| Cc1ccc(NC(=O)c2nc(S(=O)(=O)Cc3cccc(C)c3)ncc2Cl)cc1 | active: -3% |
| Cc1ccc(N2C(=O)c3oc4cc(C)c(C)cc4c(=O)c3C2c2cccc(O)c2)nc1 (stereo not given) | inactive: 84% |
| O=C(NCc1ccccc1Cl)c1cnc(N2CCCCC2)c2ccccc12 | inactive: 102% |
| CCN(C(=O)Cn1c(SCC(=O)NCc2ccccc2)nc2ccccc21)c1cccc(C)c1 | inactive: 65% |
| COC(=O)c1cc(S(N)(=O)=O)c(C)o1 | inactive: 72% |
| COc1ccc(-c2cc3ccc(O)c(CN4CCN(CCO)CC4)c3oc2=O)cc1OC | inactive: 67% |
| O=C(Nc1cccc(Cl)c1Cl)c1cc2nc(-c3ccc4c(c3)OCO4)cc(C(F)(F)F)n2n1 | inactive: 96% |
| Cc1cccn2c(Nc3ccc4c(c3)OCCO4)c(-c3ccc(Br)o3)nc12 | inactive: 80% |
| COc1ccc(OC)c(CNC(=O)c2cc(-c3ccc(Cl)s3)nc3ccccc23)c1 | inactive: 71% |
| Cc1ccc(-n2nc(C(=O)NCCc3cccc(C)c3)c3c4ccccc4n(C)c3c2=O)cc1 | inactive: 135% |
| COc1ccccc1NC(=O)c1oc2ccccc2c1NC(=O)c1ccc(S(=O)(=O)N(C)C)cc1 | inactive: 51% |
| COc1ccccc1NC(=O)CN1CCN(CC(=O)Nc2ccc(F)c(F)c2)CC1 | inactive: 126% |
| COC(=O)c1ccc(Cl)cc1NC(=O)Nc1nnc(N(C)Cc2ccccc2)s1 | inactive: 96% |
| COc1ccc(C2c3c(-c4ccccc4O)n[nH]c3C(=O)N2CCc2ccccc2)cc1 (stereo not given) | active: 21% |
| CCC(C(=O)OC)n1nnc2sc(-c3ccccc3)cc2c1=O (stereo not given) | inactive: 57% |
| COc1ccc2c(c1)c(=O)c(C(=O)c1ccc(C)cc1)cn2Cc1ccccc1F | inactive: 68% |
| CCOC(=O)c1ccc(CN(Cc2ccc(Br)cc2)S(=O)(=O)c2cccc(C(F)(F)F)c2)cc1 | inactive: 84% |
| Cc1cc(C)cc(NC(=O)C(=O)NCC(c2cccnc2)N2CCc3ccccc32)c1 (stereo not given) | active: 43% |

| SMILES | survival |
| --- | --- |
| Cn1c(=O)c2sccc2n2c(CCC(=O)Nc3ccc(F)cc3)nnc12 | inactive: 73% |
| COc1ccc(OC)c(-c2noc(N3CCN(c4cc(Cl)ccc4C)CC3)n2)c1 | inactive: 130% |
| Cc1ccc(C)c(NC(=O)CSc2nnc(C)n3c2cc2occc23)c1 | inactive: 66% |
| CCC1CCCCN1CCCNC(=O)c1ccc2c(c1)sc1nc(-c3ccc(F)cc3)cn12 (stereo not given) | active: 14% |
| CCOc1ccc(OCC)c(S(=O)(=O)N2CCC(C)CC2)c1 | inactive: 94% |
| CC(OC(=O)c1cc2sccc2n1C)C(=O)NCc1cccs1 (stereo not given) | inactive: 98% |
| CC(C)COc1ccc(Nc2ncnc3ccc(Br)cc23)cc1 | inactive: 70% |
| Cc1cccc(NC(=O)NC2COc3ccccc3C2)c1C (stereo not given) | inactive: 69% |
| Cc1ccc(CN(Cc2ccco2)C(=O)c2cccc(C)c2)cc1 | inactive: 68% |
| COC(=O)c1sccc1S(=O)(=O)N(CC(=O)NCc1ccc(F)cc1)c1ccc(C)c(C)c1 | inactive: 87% |
| CNS(=O)(=O)c1cn(CC(=O)N2CCN(c3ccc(C)cc3C)CC2)cc1S(=O)(=O)NC | inactive: 75% |
| Cc1ccc(N2C(=O)CS(=O)(=O)C23C(=O)N(Cc2ccccc2F)c2ccccc23)cc1Cl (stereo not given) | inactive: 60% |
| O=C(COc1ccccc1Cl)Nc1ccccc1OCc1cc(=O)n2ccccc2n1 | inactive: 92% |
| CN(c1ccccc1)C(CNS(=O)(=O)c1ccccc1)c1ccccc1 (stereo not given) | inactive: 82% |
| CCCCN(CC)CCNc1ncnc2onc(-c3ccc(Cl)cc3)c12 | inactive: 96% |
| CCOC(=O)N1CCN(CCC(=O)Nc2cccc(Cl)c2C)CC1 | inactive: 92% |
| Cc1ccc(Cl)cc1N1CCN(C(=O)c2cn(CC(C)C)c(=O)c3c2c2ccccc2n3C)CC1 | inactive: 95% |
| Cc1ccc(CCNC(=O)c2ccc(CNS(=O)(=O)c3ccc(C)cc3)cc2)cc1 | inactive: 71% |
| CCCN1CCCc2cc(CN)ccc21 | inactive: 82% |
| O=C(c1cccs1)N1CCN(c2ccc(Cl)cc2)CC1 | inactive: 94% |
| CCOC(=O)c1nc(Nc2ccc(Cl)cc2)c2c(C)noc2n1 | inactive: 68% |
